From the antibiotic and cytotoxicity screens of Wong et al. (2023)
The other results are listed elsewhere or left out.

Tests used:
HSkMC = human skeletal muscle cells; assay: cytotoxicity call (relative viability < 0.9); settings: 10 µM
HepG2 = assay: cytotoxicity call (relative viability < 0.9); settings: 10 µM
S. aureus RN4220 = assay: growth inhibition call (relative growth <= 0.2); settings: 50 µM

Compound | cytotoxicity call (HSkMC) | cytotoxicity call (HepG2) | growth inhibition call (S. aureus RN4220)
C[C@@H]1CN([C@H](C)CO)C(=O)c2cc(NC(=O)Nc3ccc4c(c3)OCO4)ccc2O[C@H]1CN(C)Cc1ccc(-c2ccccc2)cc1 | inactive | active | inactive
Cc1ccc(S(=O)(=O)N(C)C[C@H]2OCCCC[C@@H](C)Oc3ccc(NS(=O)(=O)c4ccc(Cl)cc4)cc3C(=O)N([C@@H](C)CO)C[C@H]2C)cc1 | inactive | inactive | inactive
C[C@@H]1CN([C@@H](C)CO)C(=O)CCCn2cc(nn2)CO[C@H]1CN(C)C(=O)Nc1cccc2ccccc12 | inactive | inactive | inactive
Cc1ccc(S(=O)(=O)Nc2ccc3c(c2)CC(=O)N([C@H](C)CO)C[C@H](C)[C@@H](CN(C)Cc2ccc(-c4ccccc4)cc2)O3)cc1 | inactive | active | inactive
COCC#Cc1ccc2c(c1)O[C@@H](CN(C)C(=O)CN(C)C)[C@@H](C)CN([C@@H](C)CO)S2(=O)=O | inactive | inactive | inactive
C[C@@H]1CN([C@H](C)CO)C(=O)Cc2cc(NS(=O)(=O)c3cccs3)ccc2O[C@H]1CN(C)S(=O)(=O)c1ccc(F)cc1 | inactive | inactive | inactive
COc1ccc(CN(C)C[C@@H]2OCCCC[C@H](C)Oc3ccc(NC(=O)Nc4ccc5c(c4)OCO5)cc3C(=O)N([C@H](C)CO)C[C@@H]2C)cc1 | inactive | inactive | inactive
COc1ccccc1S(=O)(=O)N(C)C[C@@H]1OCc2cnnn2CCCC(=O)N([C@@H](C)CO)C[C@H]1C | inactive | inactive | inactive
C[C@@H]1CN([C@H](C)CO)C(=O)c2cccc(NS(=O)(=O)c3cccs3)c2O[C@H]1CN(C)CC1CC1 | inactive | inactive | inactive
Cc1nn(C)c(C)c1C(=O)O | inactive | inactive | inactive
C[C@@H]1CN([C@H](C)CO)C(=O)Cc2cc(NC(=O)Cn3cnnn3)ccc2O[C@@H]1CN(C)C(=O)Nc1ccc(C(F)(F)F)cc1 | inactive | inactive | inactive
CC(=O)Nc1ccccc1 | inactive | inactive | inactive
O=C(CN1CCOCC1)N[C@@H]1CC[C@H](CCNC(=O)C2CCC2)O[C@H]1CO | inactive | inactive | inactive
CN(Cc1ccccc1)C[C@H]1C[C@@H](c2ccc(CO)cc2)O[C@H](c2ccc(NC(=O)CCCCCCC(=O)NO)cc2)O1 | inactive | inactive | inactive
C[C@@H]1CCCCO[C@H](CN(C)C(=O)c2ccccc2)[C@@H](C)CN([C@@H](C)CO)C(=O)c2cc(NC(=O)Nc3ccc(F)cc3)ccc2O1 | inactive | inactive | inactive
CCn1cc(C(=O)O)c(=O)c2cc(F)c(N3CCN(C(=S)Nc4cc(C(F)(F)F)ccc4Cl)CC3)cc21 | inactive | inactive | inactive
C[C@@H]1CN([C@@H](C)CO)C(=O)c2cc(NS(=O)(=O)c3ccc(Cl)cc3)ccc2O[C@@H](C)CCCCO[C@H]1CN(C)Cc1ccc2c(c1)OCO2 | inactive | active | inactive
C[C@H]1CN([C@@H](C)CO)C(=O)c2cc(-c3cccc(C(=O)N(C)C)c3)cnc2O[C@@H]1CN(C)C(=O)Cc1ccccn1 | inactive | inactive | inactive
CC(C)(C)S(=O)N1Cc2cc(C(=O)N[C@@H]3CCN(Cc4ccccc4)C3)nc(-c3cccc(C#CCC4CCCC4)c3)c2[C@H]1CCO (stereo not given in full) | active | inactive | inactive
Cc1ccc(S(=O)(=O)Nc2ccc3c(c2)C(=O)N([C@@H](C)CO)C[C@@H](C)[C@@H](CN(C)S(=O)(=O)c2ccc(F)cc2)OCCCC[C@H](C)O3)cc1 | inactive | inactive | inactive
Cn1c(=O)n2n(c1=O)[C@H](C1CC1)C=C1CN3[C@@H]([C@H](Cc4ccccc4)OC(=O)[C@@H]3Cc3ccc(-n4cc(C(=O)NO)nn4)cc3)[C@@H]12 | inactive | inactive | inactive
C[C@H]1CN([C@@H](C)CO)C(=O)c2cc(NC(=O)CCN3CCOCC3)ccc2O[C@@H]1CN(C)CC1CCCCC1 | inactive | inactive | inactive
CC[C@@H](C[C@@H](O)[C@@H](C)[C@H]1CC[C@H]2C3=CC(=O)[C@H]4[C@H](C)[C@@H](OC(=O)c5ccccc5)CC[C@]4(C)[C@H]3CC[C@]12C)C(C)C | inactive | inactive | inactive
O=C(O)c1cn(-c2ccccc2)nn1 | inactive | inactive | inactive
C[C@@H]1CN([C@@H](C)CO)S(=O)(=O)c2ccc(C#CCN(C)C)cc2O[C@H]1CN(C)C(=O)CN(C)C | inactive | inactive | inactive
Cn1c(=O)c2c(ncn2CC(=O)O)n(C)c1=O | inactive | inactive | inactive
C[C@@H]1CN([C@H](C)CO)C(=O)CCCn2cc(nn2)CO[C@@H]1CN(C)S(=O)(=O)c1ccc(-c2ccccc2)cc1 | inactive | inactive | inactive
C[C@@H]1CCCCO[C@H](CN(C)C(=O)Nc2ccc(F)cc2)[C@@H](C)CN([C@H](C)CO)C(=O)c2cc(NC(=O)Nc3ccccc3)ccc2O1 | inactive | inactive | inactive

Compound | cytotoxicity call (HSkMC) | cytotoxicity call (HepG2) | growth inhibition call (S. aureus RN4220)
C[C@H]1CN([C@@H](C)CO)C(=O)c2cccc(NC(=O)CCCCCC(=O)Nc3ccccc3N)c2O[C@H]1CN(C)Cc1ccc(Oc2ccccc2)cc1 | inactive | inactive | inactive
C[C@@H]1CN([C@@H](C)CO)C(=O)c2cc(NC(=O)Nc3ccc(F)cc3)ccc2O[C@@H](C)CCCCO[C@@H]1CN(C)C(=O)Cc1ccccc1 | inactive | inactive | inactive
C[C@H]1CN([C@@H](C)CO)C(=O)Cc2cc(NC(=O)Cc3cn(C)c4ccccc34)ccc2O[C@H]1CN(C)Cc1ccc(-c2ccccc2)cc1 | inactive | inactive | inactive
NCC[C@H]1CC[C@@H](NC(=O)C2CCCCC2)[C@H](CO)O1 | inactive | inactive | inactive
C[C@H](CO)N1C[C@H](C)[C@H](CN(C)Cc2ccc(-c3ccccc3)cc2)Oc2ccc(NC(=O)NC3CCCCC3)cc2C1=O | inactive | inactive | inactive
C[C@H](CO)N1C[C@H](C)[C@H](CN(C)Cc2ccc3c(c2)OCO3)Oc2c(NC(=O)Nc3cccc4ccccc34)cccc2C1=O | inactive | inactive | inactive
CC(C)c1cccc(NC(=O)C[C@H]2CC[C@H]3[C@@H](COc4ccc(NS(=O)(=O)c5ccccc5Cl)cc4C(=O)N3C)O2)c1 | inactive | inactive | inactive
CC(C)CNC(=O)[C@@]1(c2ccc([N+](=O)[O-])cc2)CC(=O)N(CC23CC4CC(CC(C4)C2)C3)[C@@H]1c1ccc(CO)cc1 | inactive | inactive | inactive
CC(C)CN1C(=O)[C@@]2(Cc3ccccc31)c1ccccc1C(=O)N(Cc1ccccc1Cl)[C@H]2c1ccc(CO)cc1 | inactive | inactive | inactive
C[C@@H]1CN([C@@H](C)CO)C(=O)c2cc(NS(=O)(=O)c3cccs3)ccc2O[C@H]1CN(C)S(=O)(=O)c1ccccc1 | inactive | inactive | inactive
COc1cccc(NC(=O)N(C)C[C@@H]2Oc3ncc(C#Cc4cccnc4)cc3C(=O)N([C@H](C)CO)C[C@H]2C)c1 | inactive | inactive | inactive
C[C@@H]1CN([C@H](C)CO)C(=O)c2cc(NS(=O)(=O)c3cccs3)ccc2O[C@@H]1CN(C)CC1CC1 | inactive | inactive | inactive
CO[C@H]1CN(C)C(=O)c2ccc(NC(=O)c3ccccc3)cc2OC[C@H](C)N(C(=O)CN(C)C)C[C@@H]1C | inactive | inactive | inactive
C[C@@H]1CCCCO[C@@H](CN(C)Cc2ccc(C(F)(F)F)cc2)[C@H](C)CN([C@H](C)CO)C(=O)c2cc(NC(=O)NC3CCCCC3)ccc2O1 | inactive | active | inactive
CC[N+](CC)(CC)CCOc1ccc(C=Cc2ccccc2)cc1 | inactive | inactive | inactive
Cc1noc(C)c1S(=O)(=O)N(C)C[C@@H]1Oc2ccc(NC(=O)C3CCCCC3)cc2CC(=O)N([C@H](C)CO)C[C@H]1C | inactive | inactive | inactive
C[C@H]1CN([C@@H](C)CO)C(=O)CCCn2nncc2CO[C@H]1CN(C)S(=O)(=O)c1cn(C)cn1 | inactive | inactive | inactive
Cc1ccc(S(=O)(=O)Nc2cccc3c2O[C@@H](CN(C)S(=O)(=O)c2ccccc2)[C@H](C)CN([C@@H](C)CO)C3=O)cc1 | inactive | inactive | inactive
O=S(=O)(NCC[C@@H]1CC[C@H](NS(=O)(=O)c2cccc(Cl)c2)[C@H](CO)O1)c1cccc(F)c1 | inactive | inactive | inactive
COc1ccc(NC(=O)Nc2ccc3c(c2)C(=O)N([C@H](C)CO)C[C@H](C)[C@@H](CN(C)C(=O)C2CCCCC2)OCCCC[C@H](C)O3)cc1 | inactive | inactive | inactive
C[C@H]1CN([C@@H](C)CO)C(=O)c2cccc(NS(=O)(=O)c3ccccc3)c2O[C@@H]1CN(C)Cc1ccc(Cl)c(Cl)c1 | inactive | inactive | inactive
COc1ccc(-c2ccc3cc(C(=O)O)ccc3c2)cc1C12CC3CC(CC(C3)C1)C2 | inactive | inactive | inactive
CCOc1ccc(CO[C@@H]2O[C@H](CO)[C@@H](O)[C@H](O)[C@H]2NC(C)=O)cc1OC | inactive | active | inactive
COc1cc(NC(C)CCCN)c2ncccc2c1.O=P(O)(O)O.O=P(O)(O)O (stereo not given) | inactive | active | inactive
O=C(C[C@H]1C[C@H]2c3cc(NC(=O)c4ccc5c(c4)OCO5)ccc3O[C@H]2[C@H](CO)O1)NCc1ccc(Oc2ccccc2)cc1 | active | active | inactive
CC(C)=CCOc1cc2oc(=O)ccc2cc1O | inactive | inactive | inactive
COc1ccc(S(=O)(=O)N(C)C[C@@H]2Oc3c(NC(=O)NC(C)C)cccc3C(=O)N([C@H](C)CO)C[C@@H]2C)cc1 | inactive | inactive | inactive
